The values that follow come from the RNAGym collection of RNA variant scans (doi:10.1093/nar/gkz1192).

Read counts are not given, so values of variants with three or more changes are uncertain.

B1: CPEB3 Ribozyme (parent)
chain: UAACAGGGGGCCACAGCAGAAGCGUUCACGUCGCAGCCCCUGUCAGAUUCUGGUGAAUCUGCGAAUUCUGCUGUAUAUCUC

The variants in this data set derive from B1. Nature of the data set: self-cleavage, relative activity (ratio to wild type); higher = more cleavage; in vitro, sequencing. Summed up:
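For each CPEB3 ribozyme variant, relative activity is its cleaved/total read fraction divided by the unmutated ribozyme's. Barcoded error-prone PCR libraries were transcribed by T7 RNA polymerase (5 hours, 37°C) and held in DNase I for 15 min before an EDTA stop, with cleavage occurring throughout. Template-switching reverse transcription and Illumina sequencing were used to read the RNAs. A 5-read minimum applied, and results are the mean of three batches.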
Consider UAACAGGGGGCCCCGGCAGAAGCGUUCACGUCGCAGCCCCUGUCAGAUUCUGGUGAAUCAGCGAAUUCUGCUGUAUAUCUC [A13C A15G U60A], for which the self-cleavage was found to be 0.38.
The same measure for UAACAGGGGGCCCCGGCAGAAGCGUUCUCGUCGCAGCCCCUGCCAGGUUCUGGUGAAUCAGCGGAUUCUGCUGUAUAUCUC [A13C A15G A28U U43C A47G U60A A64G]: 0.14; for UAACAGGGGGCUACAGCAGAAGCGUUCACGUCGCAGCCCCUGUCAGAUUCUGGUGAACCUGCGUGCUCUGCUGUAUAUCUC [C12U U58C A64U A65G U66C]: 0.24; for UAACAGGGGGCCCCAGCAGAAGCGCUCACGUCGCAGCCCCUGUCAGAUUCUGGUGAAUCUGCGAAUUCUGCAGUAUAUCUC [A13C U25C U72A]: 0.17.
Consider UAACAGGGGGCCCCAGCAGUAGCGUUCACGUCGCAGCCCCCGUCAGAUUCUGGUGAAUCUGCGAAUUCUGCUGUAUAUCUC [A13C A20U U41C], for which the self-cleavage came out at 0.13.
As to UAACAGGGGGCCCCAGCGGAAGCGUUCACGAUGCAGCCCCUGUCAGAUUCUGGUGAGUCUGCGAAUUCAGCUGUAUAUCUC [A13C A18G U31A C32U A57G U69A], the self-cleavage worked out at 0.1.
The same measure for UAACAGGGGGCCCCAGCAGAAGCGUUCACGUCGCAGCCCCUGUCGGAUUCUGGUGAAUCUGCGAAUACUGCUGUAUAUCUC [A13C A45G U67A]: 0.55.
As to UAACAGGGGGCCCCGGCAGGAGCGUUCACGUCGCGGCCCCAGUCAGAUUCUGGUGAAUCUGCGAAUUCUGCUGUACAUCUC [A13C A15G A20G A35G U41A U76C], the self-cleavage came out at 0.03.
As for UAACAGGGGGCCCCAGCAGGAGCGUUCACGCCGCAGCCCCUGUGAGAUUCUGGUGAAUCUGCUAAUUCUGCUGUAUAUCUC [A13C A20G U31C C44G G63U], the self-cleavage was 0.11.
As for UAACAGGGGGCCCCAGGAGAAGCGUUCACGUCGCAGCCCCUGUCAGAUUCCGGUGUAUCUGCGUAUUCUGCUGUAUAUCUC [A13C C17G U51C A56U A64U], the figure is 0; as for UAACAGGGGGCCCCAGCAGAAGCGUCCACGCCGCAGCCCCUGUCAGAUUCUGGUGAAUCUGCGAAUUCUGCUGUAUAUCUC [A13C U26C U31C], 0.29; as for UAACAGGGGGCCCCAGCUGUAGCGUUCACGCCGCAGCCCCUGUCAGAUUGUGGUGAAUCUGCGAAUUCUGCUGUAUAUCUC [A13C A18U A20U U31C C50G], 0.14.
With UAACAGGGGGCCCCAGCAGAAGCGAUCACGUCGCUGCCCCUGUCAGAUUCUGGUGAGUCUGCGAAUUCUGCUGUAUAUCUC [A13C U25A A35U A57G], the self-cleavage is 0.18.
Regarding UAACAGGGGGCCCCAGUAGAAGCGUUCACGUCGCAGCCCCUGUCAGAUUCUGGUGGAUCCGCGAAUUCUGCUGUAUAUCAC [A13C C17U A56G U60C U80A], the self-cleavage turned out to be 0.12.
In the case of UAACAGGGGGCCCCAGUAGAAGCGCUCACGUCGCAGCCCCUGCCAGAUUCUGGUGAAUCUGCGAAUUCUGCUGUAUAUCUC [A13C C17U U25C U43C], the self-cleavage worked out at 0.24.
Take UAACAGGGGGCCCCAGCAGAAGCGUUCGCGUCGCAGCCCCUGUCAGAUUCUGGUGAAUCUGCGAAUUCAGCUGUAUAUCUC [A13C A28G U69A]: the self-cleavage was 0.11.
UAACAGGGGGCCCCAGCAGAAGCGUUCGCGCCGCAGCCCCUGUCAGAUUCUGGUGAAUCUGCGAAUUCUGCUGUAUAUCCC [A13C A28G U31C U80C]: the self-cleavage worked out at 0.28.
In the case of UAACAGGGGGCCCCAGCAGAAGCGUUCAAGUUGCAGCCCCUGUCAGAUUCUGGUGAAUCUGCGAAUUCUGCUGUAUUUCUC [A13C C29A C32U A77U], the self-cleavage was determined as 0.1.
For UAACAGGGGGCCCCAGCAGAAGCGUUUACGUCGCAGCCCCUGUCAGAUUCUGGUGAAUCUGCGAAUUCUGCUGUAUAUAUC [A13C C27U C79A], the self-cleavage came out at 0.04.
For the variant UAACAGGGGGCCCCAGCUGAAGCGAUCACGUCGCAGCCACUGUCAGAUUCUGGUGAAUCUGCGAAUUCUGCCGUAUAUCUC [A13C A18U U25A C39A U72C], the self-cleavage was found to be 0.21.
As for UAACAGGGGGCCCCAGCAGAAGCGUACACGUCGCAGCCCCUGUCAGAUUCUGGUGAAUCCGCGAAUUCUGCUGUAUAUCUC [A13C U26A U60C], the figure is 0.44; as for UAACAGGGGGCCCCGGCAGAAGCGUUCACGUCGCAGCCCCUGUCAGAUUCUGGUGAAUCUGCGAAUUCUGCAGUAUAUCUC [A13C A15G U72A], 0.22; as for UAACAGGGGGCCCCAGCGCAAGCGUUCAUGUCGCAGCCCCUGUCAGAUUCUGGAGAAUCUGCGAAUUCUCCUGUAUAUCUC [A13C A18G G19C C29U U54A G70C], 0.28.
For UAACAGGGGGCCCCAGCAGAGGCGUUCACGUCGCAGCCCCAGUCAGAUUCGGGUGAAUCUGCGGAUUCUGCUGUAUAUCUC [A13C A21G U41A U51G A64G], the self-cleavage is 0.05.
UAACAGGGGGCCCCAGCAGAAGCGUUCACGUCGCAGCCCCGGUCAGAUUCUGGUGUAUCCGCAAAUUCCGCUGUGUAUCUC [A13C U41G A56U U60C G63A U69C A75G]: the self-cleavage stood at 0.03.
For UAACAGGGGGCCCCAGCAGAAGCGCUCACGUCGCAGCCCCUGUCAGAUUCUGGUGAAUCUGCGAAUUCUGCUGUGUAUCUC [A13C U25C A75G], the self-cleavage stood at 0.12.
Take UAACAGGGGGCUACAGCAGAAGCGUUCACGUCGCAGCCCCUGUCAGAUCCUGGUGAAUCUGCGAAUUCUGCAGUAUAUCUC [C12U U49C U72A]: the self-cleavage was determined as 0.69.
On to UAACAGGGGGCCCCAGCAGAAGCGUUCACGUCGCAGCCCCUGUCAGAUUCUGGUGAAUCUGCGAAUUCUGACGUAUAUCUC [A13C C71A U72C], for which the self-cleavage came out at 0.47.
Take UAACAGGGGGCCCCAGCAGAAGCGCUCACGUCGCAGCCGCUGUCUGAUUCUGGUGAAUCUGCGAAUUCUGCUGUAUAUCUC [A13C U25C C39G A45U]: the self-cleavage was found to be 0.07.
As for UAACAGGGGGCCCCAGCAGAAGCGUUCACGUCGCAGCCCCUGUCAGGUUCUGGUGAAUCUGCGAACUCUGCUGUAUAUCUC [A13C A47G U66C], the figure is 0.32; as for UAACAGGGGGCUACAGCAGAAGCGUUCACGUCGCAGCCCCUGUCAGAUUCUGGCGAAUCCCCGAAUUCUGCUGCAUAUCUC [C12U U54C U60C G61C U74C], 0.48; as for UAACAGGGGGCCCCAGCAGGAGCGUUCACGUCGCAGCCCCCGUCAGAUUCUGGUGAGUCUGCGAAUUCUGCUGUAUAUCUC [A13C A20G U41C A57G], 0.24.
As for UAACAGGGGGCCCCAGCAGAAGCGGUCACGUCGCGGGCCCUGUCAGAUUCUGGUGAAUCUGCGUAUUCUGCUGUAUACCUC [A13C U25G A35G C37G A64U U78C], the self-cleavage was found to be 0.04.
Regarding UAACAGGGGGCCCCAGCAGAAGCGUUCACGCCGCAGCCCCUGUCAGAUUCUGGUGAAUCUGCGAAUUCUGCCGUAUAUCUC [A13C U31C U72C], the self-cleavage worked out at 0.26.
